# Data taken from the supplement of paper PMC11417369.
# ± gives the standard deviation of the averaged measurements. Some of the results follow.
# Test system: PfAP2-I AP2 domain 3 (GST-tagged)
# Assay: gcPBM binding intensity (ln(normalized median fluorescence intensity)); higher = stronger DNA binding
# Outline: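 DNA-binding domains from P. falciparum, fused to GST and produced in E. coli, were put on an Agilent 4 × 180k double-stranded probe array for 1 h in 1× PBS holding 1% milk, 0.2 mg/ml BSA, 0.5% salmon testes DNA and 0.03% Triton X-100. Probes were primer-extended, 36 bp long and drawn from intergenic genomic regions, with negative controls included. After Alexa488 anti-GST antibody detection and a 488 nm scan, binding intensity was set as the highest Masliner-normalised natural-log median intensity across replicate spots of either probe orientation.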
row,Sequence,gcPBM binding intensity (ln)
1,TGAAAAGTAAAATACACACACATAATATAATTTATA [CACACA_site1989],7.7 ± 0.32
2,ATTATTTTTTTTGTTACACACATGACTTATTTTTAT [CACACA_site3228],8.01 ± 0.65
3,AAAATATGTATGTAAAGTACTAATATACAAATTTTT [XGTACX_site5186],7.54 ± 0.59
4,TTTTTTTTTTTTGATGCACACACCTGAACGAGTTAA [CACACA_site317],9.3 ± 0.22
5,TATTTTTATATATGACGTACTCTACAATTATTAATG [XGTACX_site5818],7.8 ± 0.51
6,TATATGAACTTATATACACACCATTTTTGTAAATCT [CACACA_site4547],7.62 ± 0.54
7,TATAATATATTATATACACACATTATGAAATCCACA [CACACA_site1330],7.85 ± 0.35
8,AACACGCGCAGACACACACACACACCCACATATATA [CACACA_site2205],8.18 ± 0.69
9,ATTTTGATGCATGGGTTGCACTAACTTTTGCCCAGA,9.92 ± 0.11
10,AAACAATACTGATATTGTACATAATAAAAAAAAATA [XGTACX_site3330],7.94 ± 0.2
11,ATAAATATATTTTATAGTACATAAATATCAAAAAAA [XGTACX_site2334],7.74 ± 0.48
12,AGTATACAGATATATACACACATATTTATATTTATA [CACACA_site6394],7.5 ± 0.46
13,CATACATACCTATATACACACATATAAAATAATATA [CACACA_site7290],7.93 ± 0.36
14,TGTTATTATTTGTACACACACATATATATCCTTGTT [CACACA_site3616],8.1 ± 0.49
15,GGCAACATTTGAAACACACACACATACAAACAAACA [CACACA_site3307],8.8 ± 0.092
16,TCTATATGTTGATTCACACATAAAGAATAAATAAAA [CACACA_site6017],7.66 ± 0.61
17,TAAAAGGAACAAAATTGTACTTAAAAGACAAAGTTA [XGTACX_site7661],7.33 ± 0.34
18,ACACAAAAATAAAAATGTACAAATTAAAAAAAATGA [XGTACX_site2083],7.72 ± 0.54
19,TTTTTTTTTTTTTTGTCACACACCTTCATAAGAAAA [CACACA_site1166],8.25 ± 0.78
20,CACACCATATAATATATATATATGTATATATTTATA [CACACA_negctrl_site397],7.48 ± 0.44
21,TTTGTTCTATGGAGTTTAAAATGTAATATATATTAA [GTGCAC_negctrl_site151],7.62 ± 0.18
22,ATATATATTAATAGTTGTACTATTATAATATTACAA [XGTACX_site1213],7.7 ± 0.38

row,Sequence,gcPBM binding intensity (ln)
1,ATCCTGAACAGAATATGTATAAACAGAAGGAAACAA [CACACA_negctrl_site1805],7.92 ± 0.54
2,TAATAATAGAGACACACACACATTTTTAATAATACA [CACACA_site6691],7.84 ± 0.37
3,ATATATATATATATATATATATATATATTTATATAT [GTGCAC_negctrl_site180],9.15 ± 0.45
4,CTTTGTAGTTGGTCCACACACATATATGGAAGAATA [CACACA_site1280],8.12 ± 0.33
5,AGAAAAATTCTAAGAACATGCAAAAAAATAAAAAAA [TGCATGCA_site293],7.78 ± 0.86
6,TTAACATTTTAAAAATGTACATTTATATACATAAAT [XGTACX_site922],7.64 ± 0.36
7,AAAAAATAAATAAATATACACACCATATATATATTT [CACACA_site2854],7.58 ± 0.4
8,TCTAATGTAATGCATACACACAACTATCCATCAAAA [CACACA_site534],8.21 ± 0.38
9,AAAAAAAAAAAAAAAAGTACAAAAAAAAAAAAAAAA [XGTACX_site4549],8.68 ± 0.3
10,TATACCTATAGACACACACACATAAATAGATATATA [CACACA_site6748],7.87 ± 0.33
11,TACACGCATAGACACACACACACACGCATATAAATA [CACACA_site6446],8.26 ± 0.33
12,TTTTTTTTTTTAAATAGTACACATATATATATATAT [XGTACX_site6983],9.55 ± 0.22
13,AGTTTACACCTTGTGAGTACATACATACATATATAT [XGTACX_site8793],7.98 ± 0.51
14,TTTTATTTTTCTAGTAGTACTTCTTTTTATAATATA [XGTACX_site1181],7.92 ± 0.69
15,AATACAATATAAAGGTGTACATATATATATATATAT [XGTACX_site68],9.35 ± 0.33
16,AAAAAAAAAAAAAAAACACACACAACACCCATACCT [CACACA_site9208],8.89 ± 0.53
17,ATGTAGATAGATAGGGTGCTAAAAATAAGATTTATA [GTGCAC_site9602],9.6 ± 0.042
18,TACAAAATATTTTACACACACATATAAATACCTATA [CACACA_site7272],8.185 ± 0.021
19,TATATAATTATTTGATGTACACTACAATGTATTTGT [XGTACX_site7991],7.79 ± 0.28
20,TTATGTTCTTAATGCACACTTATAAGTATCTTATAA [CACACA_site1394],10.99 ± 0.028
21,TATAAAATATATATCTGTACGTATTTTATTTTTTAT [XGTACX_site6257],7.94 ± 0.099
22,TATAAGCAAAGACACACACACATATAAATATAAATA [CACACA_site7740],7.79 ± 0.54
